Experimental findings from article PMC3299889 (Analytical Biochemistry, 2012) are described below.

For this data set the following is noted: presence of 3CLpro or PLpro, compared with GSH alone.

For the compound `N[C@@H](CCC(=O)N[C@@H](CS)C(=O)NCC(=O)O)C(=O)O` [GSH, reduced glutathione], the “stability of GSH” value is “slightly stabilized”.
